Data reported in US20260209374A1 (ENOSI THERAPEUTICS, published 2026).
Blank lines part the entries; values can stand above or below the binder they belong to.

Columns and labels:
human soluble TNFR2 = biological target: T1, human soluble TNFR2 (human, UniProt P20333 23-257); test: SPR; VHH-Fc captured by anti-human IgG (Fc) antibody on CM5 sensor chip, TNFR2 as analyte
T1 construct: also called hTNFR2; TNF receptor type 2
T1 sequence: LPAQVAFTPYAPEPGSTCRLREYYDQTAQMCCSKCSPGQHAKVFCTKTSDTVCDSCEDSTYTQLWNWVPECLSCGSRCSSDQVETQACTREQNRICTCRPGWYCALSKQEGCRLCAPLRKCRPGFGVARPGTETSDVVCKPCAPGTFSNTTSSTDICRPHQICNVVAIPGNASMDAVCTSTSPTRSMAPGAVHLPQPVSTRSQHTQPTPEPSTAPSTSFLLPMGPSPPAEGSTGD

human soluble TNFR1 = biological target: T2, human soluble TNFR1 (human, UniProt P19438 30-211); test: SPR; VHH-Fc captured by anti-human IgG (Fc) antibody on CM5 sensor chip, human soluble TNFR1 as analyte
T2 construct: also called hTNFR1; hTNFR-1
T2 sequence: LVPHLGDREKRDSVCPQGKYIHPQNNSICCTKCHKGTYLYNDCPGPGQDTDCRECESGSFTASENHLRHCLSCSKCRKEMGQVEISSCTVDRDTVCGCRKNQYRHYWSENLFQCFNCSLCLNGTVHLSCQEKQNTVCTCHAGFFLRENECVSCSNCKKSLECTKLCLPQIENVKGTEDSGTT
Description: CM5 sensor chip (Cytiva #BR100530) was coated with an anti-human IgG (Fc) antibody (Cytiva #29234600) to capture the EN1206-BV and EN1208-BV. The human soluble TNFR1 was used as analyte for binding flow.

[1] = biological target: T3, extracellular domain of TNFR-1 (Example 4) (UniProt P19438 30-211, limits assumed); test: SPR (Biacore method)
T3 construct: extracellular domain; also called TNFR1 extracellular domain
T3 sequence (looked up): T2 sequence

[2] = biological target: T4, TNFR1 on the cells of the TNF-dependent bioassays (THP1 cells in Examples 4 and 6) (human, UniProt P19438 30-455); test: cell-based or functional assay
T4 sequence: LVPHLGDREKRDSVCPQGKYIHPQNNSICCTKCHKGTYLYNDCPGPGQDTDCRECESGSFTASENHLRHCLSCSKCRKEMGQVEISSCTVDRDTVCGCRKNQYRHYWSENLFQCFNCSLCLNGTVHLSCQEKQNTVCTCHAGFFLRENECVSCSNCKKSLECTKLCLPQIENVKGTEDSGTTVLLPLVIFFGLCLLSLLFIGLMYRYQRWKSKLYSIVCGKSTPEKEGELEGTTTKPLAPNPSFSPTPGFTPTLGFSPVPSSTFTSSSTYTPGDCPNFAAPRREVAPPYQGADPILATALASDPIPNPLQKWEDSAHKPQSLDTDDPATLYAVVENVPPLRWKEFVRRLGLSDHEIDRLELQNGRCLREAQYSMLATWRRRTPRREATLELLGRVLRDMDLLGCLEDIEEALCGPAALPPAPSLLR

- binding result (human soluble TNFR2): no binding
- Kd (human soluble TNFR1): 224 nM
- fold poorer affinity (KD) than EN1206-BV (human soluble TNFR1): ~100 fold
B1: EN-1208-Fc-BV (Fc fusion)
chain: EVQLLESGGGLVQPGGSLRLSCAASGFTFDKYSMGWVRQAPGKGLEWVSQISDTADRTYYAH[about 20 residues cut from this listing]MNSLRAEDTAVYYCAIYTGRWVPFEYWGQGTLVTVSSDKTHTCPPCPAPEAAGGPSVFLFPPKPKDTLYITREPEVTCVVVDVSHEDPEVKFNWYVDGVEVHNAKTKPREEQYNSTYRVVSVLTVLHQDWLNGKEYKCKVSNKALGAPIEKTISKAKGQPREPQVYTLPPSRDELTKNQVSLTCLVKGFYPSDIAVEWESNGQPENNYKTTPPVLDSDGSFFLYSKLTVDKSRWQQGNVFSCSVMHEALHNHYTQKSLSLSPGK
notes: Homodimeric, bivalent; also called EN1208-BV; EN1208-bv

- Kd [1]: 0.43 nM
- TNF Dependent Bioassay (IC50): IL-8 [2]: 500 nM
B2: Vhh-1 (VHH)
VHH: EVQLLESGGGLVQPGGSLRLSCAASGFTFDKYSMGWVRQAPGKGLEWVSQISDTADRTYYAH[about 20 residues cut from this listing]MNSLRAEDTAVYYCAIYTGRWVPFEYWGQGTLVTVSS
notes: Single chain expressed in CHO cells; also called DOM1h-574-208; Dom 1h-574-208
